One assay has as its target human TfR on cells (human, UniProt P02786). As to the kind of experiment: cell-based or functional assay.
In assay [1] the target is HER2 on HER2-overexpressing tumor cell lines (UniProt P04626). As to the kind of experiment: cell-based or functional assay.
Assay [2] addresses T1, recombinant human TfR apical domain (human, UniProt P02786 198-378).
T1 construct: also called recombinant TfR apical domain; transferrin receptor protein 1
Briefly: SPR (Biacore), protein captured on anti-human Fab chip, human TfR apical domain injected, 1:1 Langmuir fit. How it is done:
Affinities of the bispecific proteins were measured by SPR using a Biacore T200 or a Biacore 8K. Biacore™ Series S CM5 sensor chips were immobilized with monoclonal mouse anti-human IgG (Fc) antibody for HER2 affinity measurements or mouse anti-human Fab for TfR affinity measurements (human antibody or Fab capture kit from GE Healthcare). Serial 3-fold dilutions of analyte (recombinant HER2 extracellular domain or recombinant TfR apical domain) were injected at a flow rate of […]. Each sample was analyzed using a 3-minute association and a 10-minute dissociation for HER2 extracellular domain binding and a 40-second association and a 3-minute dissociation for human TfR apical domain binding. After each injection, the chip was regenerated using 3 M MgCl₂ or 50 mM glycine at pH 2.0. Binding response was corrected by subtracting the RU from a flow cell capturing an irrelevant IgG at similar density. A 1:1 Languir model of simultaneous fitting of kon and koff was used for kinetics analysis. […] The two constructs are described below.
Background: Surface plasmon resonance follows binding to a sensor surface in real time, without labels.

T1 sequence (P02786 198-378 limits assumed): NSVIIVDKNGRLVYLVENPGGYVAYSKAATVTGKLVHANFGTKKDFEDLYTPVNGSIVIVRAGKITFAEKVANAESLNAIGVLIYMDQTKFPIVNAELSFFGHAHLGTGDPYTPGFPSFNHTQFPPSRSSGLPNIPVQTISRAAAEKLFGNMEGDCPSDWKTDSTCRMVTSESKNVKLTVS

B1: anti-HER2_DIV/DII_scFv_2 (bispecific antibody, human IgG1, kappa)
heavy 1: EVQLVESGGGLVQPGGSLRLSCAASGFTFTDYTMDWVRQAPGKGLEWVADVNPNSGGSIYNQRFKGRFTLSVDRSKNTLYLQMNSLRAEDTAVYYCARNLGPSFYFDYWGQGTLVTVSSASTKGPSVFPLAPSSKSTSGGTAALGCLVKDYFPEPVTVSWNSGALTSGVHTFPAVLQSSGLYSLSSVVTVPSSSLGTQTYICNVNHKPSNTKVDKKV[human IgG1 Fc with changes cut from this listing]
heavy 2: [about 100 residues cut from this listing]GGGGSGGGGSGGGGSGGGGS[about 120 residues cut from this listing][about 250 residues cut from this listing]
light: DIQMTQSPSSLSASVGDRVTITCKASQDVSIGVAWYQQKPGKAPKLLIYSASYRYTGVPSRFSGSGSGTDFTLTISSLQPEDFATYYCQQYYIYPYTFGQGTKVEIKRTVAAPSVFIFPPSDEQLKSGTASVVCLLNNFYPREAKVQWKVDNALQSGNSQESVTEQDSKDSTYSLSSTLTLSKADYEKHKVYACEVTHQGLSSPVTKSFNRGEC
For the molecule B1, the “maximum growth inhibition, OE19 cells, WST-1 assay” value (in the assay with human TfR on cells; in assay [1]) was roughly 80% throughout.

B2: Bispecific Protein #3 (bispecific antibody, human IgG1, kappa)
heavy 1: [about 100 residues cut from this listing]GGSGGGSGGGSGGGSGGGSG[about 120 residues cut from this listing][about 250 residues cut from this listing]
heavy 2: EVQLVESGGGLVQPGGSLRLSCAASGFTFTDYTMDWVRQAPGKGLEWVADVNPNSGGSIYNQRFKGRFTLSVDRSKNTLYLQMNSLRAEDTAVYYCARNLGPSFYFDYWGQGTLVTVSSASTKGPSVFPLAPSSKSTSGGTAALGCLVKDYFPEPVTVSWNSGALTSGVHTFPAVLQSSGLYSLSSVVTVPSSSLGTQTYICNVNHKPSNTKVDKKV[human IgG1 Fc with changes cut from this listing]
light: B1 light
Usually Kd stands for a measure of binding affinity in units of concentration. Regarding B2, the Kd in assay [2] turned out to be 450 nM.

B3: Bispecific Protein #7 (bispecific antibody, human IgG1, kappa, L234A L235A)
heavy 1: EVQLVESGGGLVQPGGSLRLSCAASGFTFTDYTMDWVRQAPGKGLEWVADVNPNSGGSIYNQRFKGRFTLSVDRSKNTLYLQMNSLRAEDTAVYYCARNLGPSFYFDYWGQGTLVTVSSASTKGPSVFPLAPSSKSTSGGTAALGCLVKDYFPEPVTVSWNSGALTSGVHTFPAVLQSSGLYSLSSVVTVPSSSLGTQTYICNVNHKPSNTKVDKKVEPKSCDKTHTCPPCPAPEAAGGPSVFLFPPKPKDTLMISRTPEVTCVVVDVSHEDPEVKFNWYVDGVEVHNAKTKPREEQYNSTYRVVSVLTVLHQDWLNGKEYKCKVSNKALPAPIEKTISKAKGQPREPQVYTLPPSRDELTKNQVSLWCLVKGFYPSDIAVEWESYGTEWSNYKTTPPVLDSDGSFFLYSKLTVSKEEWQQGFVFSCSVMHEALHNHYTQKSLSLSPGKGGGGGSGGGGS[about 120 residues cut from this listing]
heavy 2: EVQLVESGGGLVQPGGSLRLSCAASGFTFTDYTMDWVRQAPGKGLEWVADVNPNSGGSIYNQRFKGRFTLSVDRSKNTLYLQMNSLRAEDTAVYYCARNLGPSFYFDYWGQGTLVTVSSASTKGPSVFPLAPSSKSTSGGTAALGCLVKDYFPEPVTVSWNSGALTSGVHTFPAVLQSSGLYSLSSVVTVPSSSLGTQTYICNVNHKPSNTKVDKKVEPKSCDKTHTCPPCPAPEAAGGPSVFLFPPKPKDTLMISRTPEVTCVVVDVSHEDPEVKFNWYVDGVEVHNAKTKPREEQYNSTYRVVSVLTVLHQDWLNGKEYKCKVSNKALPAPIEKTISKAKGQPREPQVYTLPPSRDELTKNQVSLSCAVKGFYPSDIAVEWESNGQPENNYKTTPPVLDSDGSFFLVSKLTVDKSRWQQGNVFSCSVMHEALHNHYTQKSLSLSPGGGGGGSGGGGS[about 100 residues cut from this listing]
light: B1 light
For B3, the Kd in assay [2] came to 350 nM.

The values are drawn from US20240392035A1 (DENALI THERAPEUTICS, published 2024).
